Patent US20250340661A1, “ANTI CD40 ANTIBODY, ANTIGEN BINDING FRAGMENT AND MEDICAL USE THEREOF” (Jiangsu Hengrui Pharmaceuticals Co., Ltd., priority 2021, published 2025)

B1: 9E6-L4H2: humanized anti-CD40 antibody, HC SEQ ID NO: 93, LC SEQ ID NO: 94, human IgG1 N297A, kappa (antibody)
heavy: QVQVQESGPGLVKPSDTLSLTCTVSGFSLSSYDMSWIRQPPGKGLEWIGAIGGAGGTYYASWAKSRVTISVDTSLNQVSLKLSSVTAADTAVYYCARGWTRLDLWGQGTLVTVSSASTKGPSVFPLAPSSKSTSGGTAALGCLVKDYFPEPVTVSWNSGALTSGVHTFPAVLQSSGLYSLSSVVTVPSSSLGTQTYICNVNHKPSNTKVDKKV[human IgG1 Fc with changes not shown]
light: DIQLTQSPSFLSASVGDRVTITCQASEDISSNLAWYQQKPGKPPKLLIFPASNLASGVPSRFSGSGSGTEFTLTISSLQPEDFATYYCQGGYWTSTSNFGQGFGGGTKVEIKRTVAAPSVFIFPPSDEQLKSGTASVVCLLNNFYPREAKVQWKVDNALQSGNSQESVTEQDSKDSTYSLSSTLTLSKADYEKHKVYACEVTHQGLSSPVTKSFNRGEC
modifications: 9E6-L4H2 HC; 9E6-L4H2 LC
B2: 2F12-L4H2: humanized anti-CD40 antibody, HC SEQ ID NO: 95, LC SEQ ID NO: 96, human IgG1 N297A, kappa (antibody)
heavy: EVTVKESGPVLVKPTETLTLTCTVSGFSLSSYGVSWIRQPPGKALEWLGGIGSDGSAYYASWAKSRLTISRDTNLKQVVLTMTNMDPVDTATYYCARGGITVYAMWGQGTLVTVSSASTKGPSVFPLAPSSKSTSGGTAALGCLVKDYFPEPVTVSWNSGALTSGVHTFPAVLQSSGLYSLSSVVTVPSSSLGTQTYICNVNHKPSNTKVDKKV[human IgG1 Fc with changes not shown]
light: AFQLTQSPSSLSASVGDRVTITCQASQSISTGLAWYQQKPGKPPKLLIVGASNLASGVPSRFSGSGSGTDFTLTISSLQPEDFATYYCQSYFSSSSTVFGGGTKVEIKRTVAAPSVFIFPPSDEQLKSGTASVVCLLNNFYPREAKVQWKVDNALQSGNSQESVTEQDSKDSTYSLSSTLTLSKADYEKHKVYACEVTHQGLSSPVTKSFNRGEC
modifications: 2F12-L4H2 HC; 2F12-L4H2 LC

Legend:
[1] = system: human CD40 transgenic mice; assay: Mouse T cell-dependent humoral immune response (TDAR) model; type: in vivo; conditions: 0.3 mpk BIW ip (IgG1 control 1 mg/kg per Table 15); serum ELISA
Protocol: On day 0 of the experiment, one of the mice in each group was subjected to blood collection followed by intraperitoneal injection. On day 1, each mouse was intraperitoneally injected with 50 μg of KLH (KLH:complete Freund's adjuvant (CFA)=1:1 emulsified immune complex) for immunization. On day 15 of the experiment, each mouse was intraperitoneally injected with 50 μg of KLH (KLH:incomplete Freund's adjuvant (IFA)=1:1 emulsified immune complex) for a second immunization. Each group was intraperitoneally injected twice a week, and blood samples of about 150 μL were collected from the orbital venous plexus on days 7, 14, 21, and 28. Whole blood was left to stand at room temperature for 1-4 h and centrifuged at 7000 rpm at 4° C. for 10 min to separate serum, and the serum was stored at −80° C. before use.
Mouse serum was separated weekly and assayed by ELISA for the anti-KLH specific IgG level.

Cynomolgus monkey CD40 = assay: SPR (Biacore) affinity for cynomolgus monkey CD40; type: binding; conditions: Cynomolgus monkey CD40 as mobile phase
Protocol: (§1) The test antibody was affinity-captured on an anti-human Fc chip, and a series of concentrations of His-tagged human or cynomolgus monkey CD40 antigen were allowed to flow over the chip surface. Reaction signals were detected in real time using a Biacore instrument, and thus binding and dissociation curves were obtained. The buffer used in the experiment was HBS-EP+10× buffer solution (Cat. #BR-1006-69, GE) diluted to 1× (pH 7.4) with D. I. Water. Fitting was performed on the data obtained from the experiment using a (1:1) Binding model to obtain affinity values. 9E6-L4H2 and 2F12-L4H2 have similar binding constants for human CD40 to CFZ533, 9E6-L4H2 has a stronger binding affinity for cynomolgus monkey CD40, and 2F12-L4H2 has a slightly weak binding affinity for cynomolgus monkey CD40.

CD40 [2] = target: T1, CD40 (Homo sapiens, UniProt P25942); assay: SPR (Biacore) affinity for human CD40; type: binding; parameters: h-CD40-his; Glu21-Arg193; P25942-1; His; purchased Acrobiosystems Inc. CD0-H5228; conditions: Human CD40 as mobile phase, antibody captured
Protocol: as §1

CD40 [3] = target: T1, CD40; assay: Agonistic activity in B cell activation assay system without CD40L; type: cell-based; parameters: endogenous in cells; host or cells: human PBMCs (CD19+ B cells read out); conditions: human PBMCs without CD40L, FIG. 4; 9E6-L4H2 and 2F12-L4H2 stated at 2.5 nM
Protocol: CD40, which belongs to the TNF superfamily of receptors, mediates the specific and non-specific activation of downstream signaling pathways upon binding to the ligand CD40L or being cross-linked by antibodies. Therefore, the background agonist activity of CD40 antagonistic antibodies on B cells can be measured without adding CD40L.
Human PBMCs were plated at 2E5/well, 100 μL/well into a 96-well cell culture plate (the medium was RPMI-1640, 10% FBS, 1% penicillin-streptomycin). Serially diluted test antibodies were added at 100 μL/well, and the cells were incubated overnight at 37° C. in 5% CO2. The following day, the plate was centrifuged and the supernatant was removed, and the cells were washed twice with FACS buffer and stained at room temperature for 15 min with 100 μL of Fixable viability dye EF780 diluted at 1:1000. The cells were washed twice and then blocked at room temperature for 10 min with 100 μL of human Fc blocker diluted at 1:200. […] After centrifugation, the supernatant was removed, the cells were washed twice with FACS buffer and then resuspended in 200 μL of PBS, and the fluorescence intensity on the cell surface was measured by flow cytometry (BD FACS Celesta).

[4] = system: human CD40 transgenic mice; assay: Mouse skin graft rejection model; type: in vivo
Text: Male Balb/c mice, 6 weeks old, were purchased from the Laboratory Animal Management Department, Shanghai Institute of Planned Parenthood Research. Housing environment: SPF; certification number: 20180006023393.
On day −2 of the experiment, the mice were intraperitoneally injected with tacrolimus FK506 or CD40 antagonistic antibodies. On day 0 of the experiment, donor Balb/c mice and C57BL6/J mice were anesthetized with 4% chloral hydrate. The tails of the donor mice were removed, and full circles of skin, 1 cm in length, were isolated from the tails. The hair on the acceptor mice's back was removed, and an incision was made along the skin layer. An equal area of skin was removed while preserving the back fat and connective tissue. The donor skin was placed on the acceptor mice's incision site, and the incision was closed with glue. The mice were then placed back in cages to recover.
The mice were dosed according to the administration regimens in Table 17. After 7 days of recovery, the mouse skin survival was observed daily and rejection scores were recorded.

[5] = PK assay in human CD40 transgenic mice; type: in vivo, mouse; conditions: hCD40 transgenic mice, 10 mg/kg intraperitoneal, plasma
Text: The plate was washed three times with wash buffer.

CD40 [6] = target: T1, CD40; assay: B cell activation assay system (human PBMCs, CD40L stimulation); type: cell-based; parameters: endogenous in cells; host or cells: human PBMCs (CD19+ B cells read out); conditions: CD40L-his + anti-His overnight
Protocol: CD40 is highly expressed in B cells, and CD40L, upon binding to CD40, can induce B cell activation and up-regulate the expression of a series of activation markers. CD40 antagonistic antibodies block the binding of CD40L to CD40, thereby eliminating the immune activation process of B cells.
Human PBMCs were plated at 2E5/well, 50 μL/well into a 96-well cell culture plate (the medium was RPMI-1640, 10% FBS, 1% penicillin-streptomycin). Serially diluted test antibodies were added at 50 μL/well, and the cells were co-incubated at 37° C. in 5% CO2 for 0.5 h. CD40L-his and an anti-His antibody were added to each well for overnight stimulation. The following day, the plate was centrifuged, the supernatant was removed, and the cells were washed twice with FACS buffer and stained at room temperature for 15 min with 100 μL of Fixable viability dye EF780 (Invitrogen, 65086514) diluted at 1:1000. The cells were washed twice and then blocked at room temperature for 10 min with 100 μL of human Fc blocker (BD, 564220) diluted at 1:200. After centrifugation, the cells were incubated at 4° C. for 0.5 h with flow cytometry antibodies (PerCP/Cyanine5.5 anti-human CD19 (Biolegend, 302230), and APC anti-human CD69 (Biolegend, 310910)) diluted at 1:200. After centrifugation, the supernatant was removed, the cells were washed twice with FACS buffer and then resuspended in 200 μL of PBS, and the fluorescence intensity on the cell surface was measured by flow cytometry (BD FACS Celesta).
With reference to the method in Example 10, the inhibitory activity of the anti-CD40 antibodies 2F12-L4H2-AAYTE and 9E6-L4H2-AAYTE, which carry the AAYTE mutation in the Fc, in the B cell activation assay system was measured.

[7] = 8 days, 3 mpk, scale 3 (no rejection) to 0

T1 sequence (P25942 21-277): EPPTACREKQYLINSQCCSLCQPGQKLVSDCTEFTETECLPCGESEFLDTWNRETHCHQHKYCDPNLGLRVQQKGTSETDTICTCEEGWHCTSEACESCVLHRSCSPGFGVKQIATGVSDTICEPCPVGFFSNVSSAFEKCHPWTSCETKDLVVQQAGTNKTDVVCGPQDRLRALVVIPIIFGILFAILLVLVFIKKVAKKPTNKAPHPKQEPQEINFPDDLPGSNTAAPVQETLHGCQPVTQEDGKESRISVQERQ

| Molecule | anti-KLH specific IgG level, Day 7 [1] | anti-KLH specific IgG level, Day 14 [1] | anti-KLH specific IgG level, Day 21 [1] | anti-KLH specific IgG level, Day 28 [1] | Ka (Cynomolgus monkey CD40) | Ka (CD40 [2]) | B cell agonistic activity (CD40 [3]) | Skin graft score [4, 7] | Skin graft score ([4]; 8 days, 10 mpk, scale 3 to 0) | Skin graft score ([4]; 10 days, 3 mpk, scale 3 to 0) | Skin graft score ([4]; 10 days, 10 mpk, scale 3 to 0) | Skin graft score ([4]; 15 days, 3 mpk, scale 3 to 0) | Skin graft score ([4]; 15 days, 10 mpk, scale 3 to 0) | Skin graft score ([4]; 20 days, 3 mpk, scale 3 to 0) | Skin graft survival rate (%) ([4]; Day 15, 3 mpk ip) | Skin graft survival rate (%) ([4]; Day 15, 10 mpk ip) | AUC(0-d 14) [5] | Cmax [5] | T½ [5] | CD19+CD69+ % Maximum inhibition rate (CD40 [6]) | other results |
| --- | --- | --- | --- | --- | --- | --- | --- | --- | --- | --- | --- | --- | --- | --- | --- | --- | --- | --- | --- | --- | --- |
| B1 | 0.002 ± 0.001 | 0.02 ± 0.01 | 0 | 18.25 ± 8.9 | 514000 M⁻¹ s⁻¹ | 413000 M⁻¹ s⁻¹ | no significant B cell agonistic activity | 3 | 3 | 2.7 | 2.7 | 0.6 | 0.3 | 0 | 28.5% | 14.3% | 13439 (h)*(mg/L) | 85.8 µg/mL | 9.45 days | 98% | Skin graft score ([4]; 20 days, 10 mpk, scale 3 to 0): 0; CD19+CD69+ MFI Maximum inhibition rate (CD40 [6]): 110% |
| B2 | 0.22 ± 0.14 | 33.4 ± 25.8 | 175.5 ± 103 | 805.7 ± 415.6 | 1.17e+07 M⁻¹ s⁻¹ | 758000 M⁻¹ s⁻¹ | no significant B cell agonistic activity | 2.9 | 2.7 | 2.4 | 2.4 | 0.6 | 0.9 | 0.1 | 28.5% | 42.9% | 12014 (h)*(mg/L) | 88.78 µg/mL | 10.71 days | 93% | CD19+CD69+ MFI Maximum inhibition rate (CD40 [6]): 111% |
